# Assay results as given in publication PMC12136788.
# The list shows a part of the results.
# T1: UNK ZnF1-6 (called full-length) (human, UniProt Q9C0B0 30-357)
# T1 sequence: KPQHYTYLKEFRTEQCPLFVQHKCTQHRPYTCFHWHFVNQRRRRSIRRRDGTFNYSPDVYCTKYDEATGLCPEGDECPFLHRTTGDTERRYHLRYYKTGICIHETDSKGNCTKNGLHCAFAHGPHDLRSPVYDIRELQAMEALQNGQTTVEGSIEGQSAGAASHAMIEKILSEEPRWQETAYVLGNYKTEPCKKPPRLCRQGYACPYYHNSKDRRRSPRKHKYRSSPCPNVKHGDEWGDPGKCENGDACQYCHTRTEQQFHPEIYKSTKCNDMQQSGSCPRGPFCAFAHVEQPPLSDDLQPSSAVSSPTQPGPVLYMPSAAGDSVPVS
# B1: chr7:30424526:30425710:-|three_prime_utr|ENSG00000106100|control|control|control (ssRNA)
# RNA: GGGAGUUCUACAGUCCGACGAUCAAACUCCCUAAGUACCCGCUACAAUUCUGCAGAAAAAGAAUGUGUCUUGCGAGCUGUUGUAGUUACAGUAAAUACACUGUGAAGAGACUUUAUUGCCUAUUAUAAUUAUUUUUAUCUGAACAACAGAGGAUUGAGCAUCA
# B2: chr4:183512276:183512377:+|3pUTR|ENSG00000168556|unk|FALSE|unique (ssRNA)
# RNA: GGGAGUUCUACAGUCCGACGAUCCUGCUUGUUUUGGGAAAAAAAAAUGCUUUUUUUCUCUUCUAGCUCUCCUGUGUGACUUUUAGGCAUGUCAUUUCACCUUGUCUGGGUGUCAGGUCAUUCACCUGUAAAAUGAGUUGGCUUCAACAGAGGAUUGAGCAUCA
# B3: chr14:106116634:106116941:-|CDS|ENSG00000211941|control|control|control (ssRNA)
# RNA: GGGAGUUCUACAGUCCGACGAUCUGGAUCCGCCAGGCUCCAGGGAAGGGGCUGGAGUGGGUUUCAUACAUUAGUAGUAGUAGUAGUUACACAAACUACGCAGACUCUGUGAAGGGCCGAUUCACCAUCUCCAGAGACAACGCCCAACAGAGGAUUGAGCAUCA
# B4: ENSG00000107863:be:win_1051|CDS|ENSG00000107863|bound_else_gene|NA|bound_elsewhere_windowed (ssRNA)
# RNA: GGGAGUUCUACAGUCCGACGAUCUACAGUGGACAUUCUGAUGGAAUCUCAAGCAGCAGAUCUCAAGCUGUGGAGGCUCCCUCUGUAUCUGUUAAUCACUAUUCGCCAAAUUCCCAUCAGCACAUAGACUGGAAAAACUAUAAACAACAGAGGAUUGAGCAUCA
# B5: chr8:23842440:23842541:-|3pUTR|ENSG00000159167|msi1|total|mutant (ssRNA)
# RNA: GGGAGUUCUACAGUCCGACGAUCCCAAUGCGACAAGCCGUUCAUGAGUAUUCCCCGCAAAUUUCUCUCUUUCUUCAGUUCAGCCGAUUUCCUUUUUUCUUUUCUUUUUUUUUUUUUUUUUUUUUGGCUGUGACCUCUUCAAACCAACAGAGGAUUGAGCAUCA
# B6: chr1:225494445:225494546:-|3pUTR|ENSG00000154380|msi1|total|mutant (ssRNA)
# RNA: GGGAGUUCUACAGUCCGACGAUCUUGGGUGUUCCCUCUUCUUAUUUUCUCUCUGCCCACCUUGACACAGUAACUUCCUCUUACCGUCAAGAUGAUGAUUAAGUGUUUAAUUUUUAUUCCAUUUUGUUCUGCAACACGUUCAGGCAACAGAGGAUUGAGCAUCA
# Target: T1, UNK ZnF1-6 (called full-length)
# Test: nsRBNS (natural sequence RNA bind-n-seq); RBNS binding buffer (assumed for nsRBNS): 25 mM Tris pH 7.5, 150 mM KCl, 3 mM MgCl2, 0.01% Triton X-100, 500 ug/ml BSA, 20 U/ml SUPERase-In, 4 C; UNK is unkempt and MSI1 is Musashi-1; names of the RNAs are library labels; protein concentration not given here; high values mean tight binding
row,Binder,binding signal [enrichment R]
1,B1,3.7
2,B2,0.423
3,B3,1.12
4,B4,0.834
5,B5,3.66
6,B6,0.642
